# Laboratory results reported in a collection of fitness landscapes (doi:10.1016/j.celrep.2020.107928).
# The full ranking holds about 81,000 sequences; the median of “one-hybrid fitness for binding parS DNA” is about -0.17, and the highest 2% start at about 0.51. This is one part of the list.
# B1: Caulobacter ParB omega fusion; a variant is named by its letters at X, in order, B8GW30 (parent)
# chain: MESVVVGEPGMSEGRRGLGRGLSALLGEVDAAPAQAPGEQLGGSREAPIEILQRNPDQPRRTFREEDLEDLSNSIREKGVLQPILVRPSPDTAGEYQIVAGERAWRAAQRAGLKTVPIMVRELDDLAVLEIGIIENVQRADLNVLEEALSYKVLMEKFERTQENIAQTIGKSXSHVANXMRLLXLPDEVQSYLVSGELTAXHARAIAAAADPVALAKQIIEGGLSVRETEALARKAPNLSAGKSKGGRPPRVKDTDTQALESDLSSVLGLDVSIDHRGSTGTLTITYATLEQLDDLCNRLTRGI
# Variants of: B1
# Assay: one-hybrid fitness for binding parS DNA (scaled: cognate 1, non-cognate 0); higher = stronger binding
# Details: with parS DNA site
# Procedure, shortened: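 Bacterial one-hybrid selection in E. coli USO rpoZ- hisB- pyrF- with a HIS3 reporter carrying the site 19 bp from the promoter, screening Caulobacter ParB libraries with four specificity codons randomised (NNS). Cells grew 48 hours at 37°C on M9-minus-histidine plus 0.1 mM IPTG and 5 mM 3-AT. Plasmids before and after selection were Illumina-sequenced, three replicate libraries pooled, and variants under 10 reads dropped. Fitness is the log change in variant-to-wild-type read ratio, rescaled to cognate 1, non-cognate 0.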
row,Variant,one-hybrid fitness for binding parS DNA
1,DERP,≤ 0.2
2,ARYF,≤ 0.2
3,AMCP,≤ 0.2
4,TFKY,≤ 0.2
5,CNRN,≤ 0.2
6,DHPP,≤ 0.2
7,TDGM,≤ 0.2
8,HAHK,≤ 0.2
9,PYEL,≤ 0.2
10,SHMW,≤ 0.2
11,NEKI,≤ 0.2
12,NGVE,≤ 0.2
13,HFMV,≤ 0.2
14,IMWS,≤ 0.2
15,RDYG,≤ 0.2
16,GPAT,≤ 0.2
17,TMNG,≤ 0.2
18,KTFT,≤ 0.2
19,KYNW,≤ 0.2
20,KKSS,≤ 0.2
21,RVTM,0.299
22,TVLF,≤ 0.2
23,GKTF,≤ 0.2
24,VKCT,≤ 0.2
25,DGNR,≤ 0.2

row,Variant,one-hybrid fitness for binding parS DNA
1,GQDP,≤ 0.2
2,FRIR,≤ 0.2
3,PKAE,≤ 0.2
4,CHQV,≤ 0.2
5,CLAE,≤ 0.2
6,FHCW,≤ 0.2
7,QFIL,≤ 0.2
8,KWCG,≤ 0.2
9,DFFS,≤ 0.2
10,RWSL,≤ 0.2
11,QVDG,≤ 0.2
12,RHGE,0.244
13,YHRG,≤ 0.2
14,FPHT,≤ 0.2
15,AKFR,≤ 0.2
16,WELG,≤ 0.2
17,RCRM,0.365
18,CTLY,≤ 0.2
19,VVTK,≤ 0.2
20,KVKP,≤ 0.2
21,LCSN,≤ 0.2
22,NGFS,≤ 0.2
23,VQQV,≤ 0.2
24,VMAT,≤ 0.2
25,CRVS,≤ 0.2

row,Variant,one-hybrid fitness for binding parS DNA
1,TQKT,≤ 0.2
2,CTHS,≤ 0.2
3,WYLR,≤ 0.2
4,KWET,≤ 0.2
5,PIQY,≤ 0.2
6,LDGT,≤ 0.2
7,NSCK,≤ 0.2
8,PQYN,≤ 0.2
9,TSMN,≤ 0.2
10,QGRA,≤ 0.2
11,PLSA,≤ 0.2
12,VLCF,≤ 0.2
13,PVAG,≤ 0.2
14,YPAW,≤ 0.2
15,PYKP,≤ 0.2
16,HLRD,≤ 0.2
17,DRPV,≤ 0.2
18,DLEC,≤ 0.2
19,STHI,≤ 0.2
20,VWQG,≤ 0.2
21,YNHC,≤ 0.2
22,GPHV,≤ 0.2
23,PTSW,≤ 0.2
24,CVKG,≤ 0.2
25,KSTT,≤ 0.2

row,Variant,one-hybrid fitness for binding parS DNA
1,THMF,≤ 0.2
2,SDDI,≤ 0.2
3,VKKS,≤ 0.2
4,EILG,≤ 0.2
5,QHYT,≤ 0.2
6,TWSS,≤ 0.2
7,FIHS,≤ 0.2
8,PMPD,≤ 0.2
9,PKCW,≤ 0.2
10,HPDF,≤ 0.2
11,AREA,≤ 0.2
12,YLKA,≤ 0.2
13,FTTF,≤ 0.2
14,AYPF,≤ 0.2
15,TGAK,≤ 0.2
16,TPSD,≤ 0.2
17,VPWV,≤ 0.2
18,IPRH,≤ 0.2
19,DTSR,≤ 0.2
20,RHEW,≤ 0.2
21,QNIF,≤ 0.2
22,ARAA,≤ 0.2
23,SKLN,≤ 0.2
24,FRFG,≤ 0.2
25,CNRQ,≤ 0.2

row,Variant,one-hybrid fitness for binding parS DNA
1,DLET,≤ 0.2
2,KDAT,≤ 0.2
3,HPSH,≤ 0.2
4,AWRF,≤ 0.2
5,RSET,0.653
6,PNMG,≤ 0.2
7,HSIM,≤ 0.2
8,DLQC,≤ 0.2
9,TWKT,≤ 0.2
10,DMTT,≤ 0.2
11,THDP,≤ 0.2
12,PLKR,≤ 0.2
13,RSQD,≤ 0.2
14,LLGM,≤ 0.2
15,IHKH,≤ 0.2
16,ITAA,≤ 0.2
17,CWHR,≤ 0.2
18,YARD,≤ 0.2
19,LVPT,≤ 0.2
20,VMKY,≤ 0.2
21,KQAS,≤ 0.2
22,GRTP,≤ 0.2
23,LIYL,≤ 0.2
24,NMSA,≤ 0.2
25,CNFC,≤ 0.2

row,Variant,one-hybrid fitness for binding parS DNA
1,SRCT,≤ 0.2
2,MSTS,≤ 0.2
3,VETM,≤ 0.2
4,KIDL,≤ 0.2
5,QTHL,≤ 0.2
6,MTIT,≤ 0.2
7,NHII,≤ 0.2
8,APHN,≤ 0.2
9,RSNY,0.496
10,LPAT,≤ 0.2
11,ANRQ,≤ 0.2
12,VWTR,≤ 0.2
13,SLPS,≤ 0.2
14,PLVS,≤ 0.2
15,EDPV,≤ 0.2
16,GVHF,≤ 0.2
17,RTVK,≤ 0.2
18,ECKC,≤ 0.2
19,DVIR,≤ 0.2
20,DTIC,≤ 0.2
21,WQLS,≤ 0.2
22,LSRQ,≤ 0.2
23,LKEL,≤ 0.2
24,LMIC,≤ 0.2
25,YSTV,≤ 0.2

row,Variant,one-hybrid fitness for binding parS DNA
1,RVHC,0.965
2,AFWG,≤ 0.2
3,HCAG,≤ 0.2
4,RFKH,0.252
5,PNKD,≤ 0.2
6,WNMP,≤ 0.2
7,QSMT,≤ 0.2
8,GNMT,≤ 0.2
9,RLIW,≤ 0.2
10,TSLQ,≤ 0.2
11,AMTD,≤ 0.2
12,LLTV,≤ 0.2
13,VHRF,≤ 0.2
14,DYST,≤ 0.2
15,TNNA,≤ 0.2
16,GMLH,≤ 0.2
17,RQWH,≤ 0.2
18,EHCN,≤ 0.2
19,IGTF,≤ 0.2
20,QRAK,≤ 0.2
21,MDQG,≤ 0.2
22,VESR,≤ 0.2
23,ENHS,≤ 0.2
24,DHTC,≤ 0.2
25,MIMS,≤ 0.2

row,Variant,one-hybrid fitness for binding parS DNA
1,RPQS,≤ 0.2
2,MYYC,≤ 0.2
3,SGDF,≤ 0.2
4,IYPN,≤ 0.2
5,SMHA,≤ 0.2
6,KPQV,≤ 0.2
7,TFIM,≤ 0.2
8,MLFG,≤ 0.2
9,TLND,≤ 0.2
10,THAK,≤ 0.2
11,RMER,≤ 0.2
12,TNNF,≤ 0.2
13,HCMS,≤ 0.2
14,YQLG,≤ 0.2
15,WSRC,≤ 0.2
16,PMRT,≤ 0.2
17,TWKN,≤ 0.2
18,LHDM,≤ 0.2
19,TCTL,≤ 0.2
20,KVLY,≤ 0.2
